This is one part of the list. Values were computed here from the reads of four pooled replicates and scatter widely.
The sequences below were run against T1, Pho4 (S. cerevisiae) (UniProt P07270) (assay: relative binding free energy (BET-seq); higher = weaker binding). Details: reference: library average.
T1 sequence: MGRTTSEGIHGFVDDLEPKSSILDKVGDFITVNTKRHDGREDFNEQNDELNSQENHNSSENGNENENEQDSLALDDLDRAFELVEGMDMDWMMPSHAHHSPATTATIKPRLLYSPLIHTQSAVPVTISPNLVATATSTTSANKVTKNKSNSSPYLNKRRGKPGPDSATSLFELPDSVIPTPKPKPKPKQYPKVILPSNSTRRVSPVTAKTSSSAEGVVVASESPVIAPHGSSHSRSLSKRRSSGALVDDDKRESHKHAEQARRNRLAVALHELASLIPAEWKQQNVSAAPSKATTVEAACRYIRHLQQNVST

Sequence	relative binding free energy
CTTTTCACGTGAGTTG	0.27 kcal/mol
GGTACCACGTGGTAGG	-0.13 kcal/mol
TGTGGCACGTGCAGGG	-0.03 kcal/mol
AGGTTCACGTGTACGT	0.33 kcal/mol
GGATACACGTGTAGGT	0.17 kcal/mol
TGATGCACGTGGGGAC	-0.23 kcal/mol
GGGTGCACGTGGTGTA	-0.08 kcal/mol
GTCTGCACGTGTAGGG	0.06 kcal/mol
TATGCCACGTGGTGCA	-0.11 kcal/mol
GAGTGCACGTGTGTTG	0.16 kcal/mol
TGTTTCACGTGCTTAT	0.31 kcal/mol
TCCTGCACGTGGTGGA	-0.06 kcal/mol
TACGTCACGTGTTGTG	0.14 kcal/mol
CATTGCACGTGTCGTG	-0.04 kcal/mol
GTTCGCACGTGGGATA	-0.12 kcal/mol
TTAGGCACGTGCTGTA	-0.18 kcal/mol
TATGACACGTGTGTAA	-0.01 kcal/mol
GTATGCACGTGCGGCG	-0.17 kcal/mol
GGGATCACGTGTGGTG	0.23 kcal/mol
ATAGCCACGTGGTGTA	-0.23 kcal/mol
AGGTGCACGTGGAGGT	-0.02 kcal/mol
GTGTGCACGTGTAATC	0.13 kcal/mol
GGGGTCACGTGGCATA	-0.01 kcal/mol

Sequence	relative binding free energy
ATTGTCACGTGGCTCT	-0.05 kcal/mol
AGCGGCACGTGGCGGG	-0.24 kcal/mol
ATATACACGTGTCGGG	0.04 kcal/mol
AGTTTCACGTGTCATG	0.15 kcal/mol
ACTGTCACGTGTTGTG	-0.01 kcal/mol
GGTTGCACGTGCCGGG	0.11 kcal/mol
ATTCTCACGTGTGTGG	0.3 kcal/mol
GGATGCACGTGTAAGG	0.05 kcal/mol
ACGGTCACGTGTCTGG	0.06 kcal/mol
AGTTTCACGTGGTTGC	0.2 kcal/mol
TGGAGCACGTGTTTGC	-0.13 kcal/mol
CTGGGCACGTGGCCGT	-0.11 kcal/mol
GGGGGCACGTGGCTGG	-0.11 kcal/mol
AGCGTCACGTGCGAGG	0.05 kcal/mol
CTTGGCACGTGGTGAG	-0.17 kcal/mol
GGATGCACGTGCATGG	0 kcal/mol
ATTTGCACGTGGGGGC	-0.06 kcal/mol
AATTGCACGTGCGCTG	0.03 kcal/mol
AAATGCACGTGGGTAG	-0.09 kcal/mol
TTAAGCACGTGTGGTA	-0.06 kcal/mol
ATTGGCACGTGAGCTG	0.1 kcal/mol
GGAATCACGTGGGGGT	0.01 kcal/mol
TTGAGCACGTGTTAGC	-0.02 kcal/mol

Sequence	relative binding free energy
TTTTACACGTGGTCCT	0.05 kcal/mol
CATATCACGTGCGGTT	0.15 kcal/mol
TTCGTCACGTGGATAG	0.13 kcal/mol
TGGAACACGTGTTGGC	-0.03 kcal/mol
TGACACACGTGAGGGT	0.18 kcal/mol
GATTACACGTGGAAGG	0.11 kcal/mol
TGCTACACGTGTCGGT	0.14 kcal/mol
ACTTTCACGTGGTTTG	0.33 kcal/mol
TTTAGCACGTGGACGA	-0.12 kcal/mol
ATAGGCACGTGCGGTT	-0.11 kcal/mol
ATGGGCACGTGTTAGA	0.03 kcal/mol
CGGATCACGTGGGCGG	0.03 kcal/mol
TTCATCACGTGTTTTA	0.16 kcal/mol
TTTTTCACGTGATGAA	0.25 kcal/mol
AAGTGCACGTGGGTCG	-0.17 kcal/mol
TACTGCACGTGGGTTA	-0.1 kcal/mol
TGGATCACGTGGACTT	0.18 kcal/mol
GTAATCACGTGCAGGT	0.19 kcal/mol
GCAAACACGTGTGGGG	0 kcal/mol
GGCTTCACGTGGGAAG	0.25 kcal/mol
GGACGCACGTGGATGT	0 kcal/mol
AAGTTCACGTGAGTTC	0.53 kcal/mol
CTGAGCACGTGAGGGC	0.26 kcal/mol

Sequence	relative binding free energy
CTTGACACGTGTTGGT	0.06 kcal/mol
ATATGCACGTGGTCTT	-0.07 kcal/mol
TTTGACACGTGTGAGA	0.15 kcal/mol
TGGCCCACGTGAGGGG	0.09 kcal/mol
GGGTACACGTGAGGGG	0.36 kcal/mol
ATTGTCACGTGATGGG	0.24 kcal/mol
GGGAGCACGTGTAGTT	-0.13 kcal/mol
TATGGCACGTGTTGAG	-0.12 kcal/mol
TAAAACACGTGGGATT	-0.06 kcal/mol
TTTCACACGTGGCTGG	0.02 kcal/mol
ATTTCCACGTGGTAGG	0 kcal/mol
AGTGGCACGTGAGAAG	0.13 kcal/mol
TTAGGCACGTGGTCAT	-0.24 kcal/mol
AGGGCCACGTGTTGTG	-0.03 kcal/mol
GCTGTCACGTGTGAGA	0.19 kcal/mol
CGTTTCACGTGTAATG	0.18 kcal/mol
TTAGTCACGTGTAAGA	0.06 kcal/mol
AGGGACACGTGGGCCG	-0.12 kcal/mol
AGGGTCACGTGAGTGG	0.3 kcal/mol
TTCTGCACGTGGGTGT	-0.14 kcal/mol
AAGGTCACGTGAGTTC	0.37 kcal/mol
TTATGCACGTGTGGGT	0.06 kcal/mol
TTGAACACGTGGAGCT	0.12 kcal/mol

Sequence	relative binding free energy
TCTGCCACGTGAGGGT	0.23 kcal/mol
CTTTTCACGTGGGGTT	-0.04 kcal/mol
GGAAGCACGTGAATGT	0.07 kcal/mol
GGTTTCACGTGGGGTG	0.26 kcal/mol
ATTATCACGTGTGGTT	0.25 kcal/mol
TCGGGCACGTGTGTAT	-0.04 kcal/mol
AAAGTCACGTGTCGGG	0.2 kcal/mol
GGTTGCACGTGACAAG	0.12 kcal/mol
AGGAACACGTGGGTGT	-0.17 kcal/mol
GACGGCACGTGTAGTT	0.01 kcal/mol
AATGTCACGTGTATGT	0.01 kcal/mol
GGGGTCACGTGCAAGG	0.28 kcal/mol
TCGGGCACGTGGCTGT	-0.15 kcal/mol
GGCGGCACGTGAGTAA	0.17 kcal/mol
TGTGGCACGTGGCTCT	-0.24 kcal/mol
CACTTCACGTGTTGTT	0.24 kcal/mol
TAGATCACGTGTGGGT	0.31 kcal/mol
ATGTGCACGTGGGCTT	-0.19 kcal/mol
TAAGGCACGTGAATTT	0.19 kcal/mol
GGCGCCACGTGTTGTT	-0.01 kcal/mol
ACGGTCACGTGTCGTT	0.16 kcal/mol
TTTAACACGTGATCTT	0.17 kcal/mol
TGGAACACGTGCGAGT	0.08 kcal/mol

From the BET-seq Pho4 binding data (Le et al. 2018)
